Assay results: PubChem BioAssay AID1346428 (National Center for Advancing Translational Sciences (NCATS), 2018)
Where “and” joins values, the source holds several entries; their conditions need not be identical. Identical values can stand only once. Out of some 48,000 compounds screened, about 1,200 (2.5%) were called active. Roughly 2% stayed inconclusive and do not appear here.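 The calls were made as follows: active = activation of at least 60% and not above a set upper limit (about 1 call in 100 departs from these limits); inconclusive = activation of 40% to 60%, or above that upper limit; inactive = activation under 40%.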 The list shows a part of the results.

Each molecule was assayed against Probable G-protein coupled receptor 32 (Homo sapiens) (UniProt O75388) (assay: qHTS for Agonists of Human Resolvin D1 Receptor DRV1). Settings: CHO-K1 GPR32 beta-arrestin PathHunter luminescence, 90 min; at 76.9 µM; active compounds read high; zero percent set by DMSO-only wells.
UniProt O75388, sequence (O75388 whole entry, looked up): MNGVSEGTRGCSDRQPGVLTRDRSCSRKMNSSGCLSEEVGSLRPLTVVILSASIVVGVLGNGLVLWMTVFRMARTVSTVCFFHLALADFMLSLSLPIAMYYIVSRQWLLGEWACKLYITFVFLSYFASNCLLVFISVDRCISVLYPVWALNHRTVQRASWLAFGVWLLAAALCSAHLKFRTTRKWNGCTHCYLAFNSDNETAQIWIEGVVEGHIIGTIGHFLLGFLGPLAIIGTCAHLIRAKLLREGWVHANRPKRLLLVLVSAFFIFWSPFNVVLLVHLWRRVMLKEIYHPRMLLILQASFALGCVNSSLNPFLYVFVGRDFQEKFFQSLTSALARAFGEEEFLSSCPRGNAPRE
Outline: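 Luminescent readout of beta-Gal complementation quantifies ligand-induced beta-arrestin association with GPR32 in CHO-K1 cells; 90 min compound incubation at 37 °C, detection 1 h at room temperature.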
Also: 0% is about no effect.

activation, inactive:
Oc1ccc(NCc2ccc(OCc3ccccc3)cc2)cc1 -16.6%, Cc1cc(=O)oc2cc(OCC(=O)Nc3ccc(O)c(C(=O)O)c3)ccc12 -0.238%, CCCOc1ccc(NC(=O)C(=O)NCCCN2CCOCC2)cc1 20.9%, CCCCCn1c(=O)[nH]c2cc(C(=O)NCc3ccccc3)ccc2c1=O -0.53%, CC(C)CNS(=O)(=O)c1ccc(N2CCCCS2(=O)=O)cc1 6.95%, CCOc1ccc(NC(=O)CCc2c(C)nc3cc(-c4ccc(Cl)cc4)nn3c2C)cc1 -12.6%, Cc1ccc(NC(=O)c2sc(-n3nc(C)c(Cc4ccc5c(c4)OCO5)c3C)nc2C)cc1Cl 4.27%, Cc1cccc(-c2noc(CNC(=O)c3ccccc3Br)n2)c1 -2.7%, Cc1cccc(Cn2c(SCc3ccc(C(=O)NC4CCCC4)cc3)nc3ccncc32)c1 -11.9%, COc1ccc(CNC(=O)Cc2c(C)c3c(cc(C)c4c(C)c(C)oc43)oc2=O)cc1OC -8.2%, COc1ccc(CC(=O)Nc2ccc3nc(N4CCCCC4)cc(C)c3c2)cc1 -9.37%, CC1CCN(S(=O)(=O)c2ccc3c(c2)oc(=O)n3CC(=O)O)CC1 -7.92%, Cc1cccc(NC(=O)C2CCN(c3cnccn3)CC2)c1 27.4%, COc1ccc(Cn2c(=O)c3ccccc3n3c(-c4cccc(OC)c4OC)nnc23)cc1 35.9%, CCOC(=O)c1c(NC(C)=O)c2c3c(sc2n1Cc1nc(-c2ccccc2Cl)oc1C)CCCC3 -13.8%, Cc1ccc(CNC(=O)c2cc3c(s2)-c2c(C)cccc2OC3)cc1 9.5%, COc1ccc2c(c1)c1c(c(=O)n(Cc3ccccc3)c(=O)n1CC(=O)NCc1ccccc1)n2C 6.75%, Cc1cc(C)cc(NC(=O)N2CCN(c3cc(-c4noc(C)n4)ccc3C)CC2)c1 -4.41%, Cc1ncc([N+](=O)[O-])n1C -8.02%, CCOCCCNC(=O)c1ccc(-n2c(-c3ccccc3)cc3c2CCCCC3)cc1 -17.8%, CN(C)CCN(Cc1ccco1)C(=O)c1oc2ccccc2c1NC(=O)c1cccc(F)c1 1.92%, CCC(=O)N1CCc2cc(Br)cc(S(=O)(=O)CCC(=O)Nc3cccc(C)c3C)c21 -5.31%, COc1ccc(CNCc2c(C(=O)O)n(Cc3ccc(F)cc3)c3cc(C)ccc23)cc1OC 14.9%, CNc1ncnc2c1ncn2[C@@H]1O[C@H](CO)[C@@H](O)[C@H]1O -7.92%, CCOc1ncc(F)c(=O)[nH]1 19.3%, COc1ccccc1NC(=O)C1=C(C)Nc2ncnn2C1c1cccn1C (stereo unspecified) 11%, CCOc1ccc(CN2C(=O)c3ccccc3C2C(=O)NCCc2ccc(OC)c(OC)c2)cc1 (stereo unspecified) -5.58%, COc1ccc(CNC(=O)Cc2c(C)c3cc4c(C)coc4c(C)c3oc2=O)cc1OC -4.24%, COc1ccc(Cn2c(CO)cnc2SCc2ccccc2C)cc1 -12.5%, CCOC(=O)c1c(S(=O)(=O)N2CCC(C(=O)Nc3ccc(F)cc3F)CC2)c(C)n(C)c1C 0.848%, CC1Cc2cc(S(=O)(=O)CCC(=O)NCc3ccccc3Cl)ccc2N1C(=O)C1CC1 (stereo unspecified) -4.29%, CCOc1ccc(CNS(=O)(=O)c2ccc3c(c2)CCCN3C(C)=O)cc1 4.88%, COc1ccc(-n2cc(C(=O)Oc3cc(C)cc(C)c3)c3ccccc3c2=O)cc1 -2.46%, COc1cccc(NC(=O)Cn2cc(C(=O)c3ccco3)c3ccccc32)c1 3.1%, Cc1ccc(C)c(NC(=O)C2CCN(c3cc(C)nc4c(-c5ccc(Cl)cc5)c(C)nn34)CC2)c1 -1.29%, CCC(=O)N1CCc2cc(S(=O)(=O)Nc3cc(C)ccc3OC)ccc21 6.52%, COc1ccccc1CC(=O)Nc1ccc2nc(Nc3cccc(Cl)c3)cc(C)c2c1 13.1%, c1ccc2c(c1)CCCC2C1=NCCN1 (stereo unspecified) 10.7%, COc1ccc(-c2csc3ncnc(Nc4cc(OC)cc(OC)c4)c23)cc1 -10.1%, CC(C)C(=O)Nc1ccc2nc(SCC(=O)N3CCc4ccccc43)sc2c1 16%, Cc1ccc(-n2c(SCC(=O)c3ccccc3)nc3c([nH]c4ccccc43)c2=O)cc1 -0.42%, CC(C)c1ccc(NC(=O)Cn2cc(S(=O)(=O)Cc3ccccc3Cl)c3ccccc32)cc1 -5.73%, O=C(Nc1ccc2oc(-c3cccc(F)c3)nc2c1)c1ccc2ccccc2c1 -8.71%, Cc1cc(C)cc(NC(=O)c2cc(S(=O)(=O)N3CCc4ccccc43)cn2C)c1 -3.38%, COc1ccccc1CNC(=O)c1ccc2c(c1)N(Cc1c(F)cccc1Cl)C(=O)CS2 -3.93%, CC1CCN(C(=O)CSc2nc3ccccc3nc2Cc2ccccc2)CC1 -27.8%, CCOc1ccccc1N1CCN(S(=O)(=O)c2ccc(C3CCCCC3)cc2)CC1 1.89%, CCCCC(Sc1nc2cc3c(cc2c(=O)n1CCCC(=O)NCc1ccc2c(c1)OCO2)OCO3)C(=O)OCC (stereo unspecified) -8.07%, O=C(CSc1ncc(S(=O)(=O)c2ccc(Br)cc2)c(=O)[nH]1)Nc1ccc2c(c1)OCCO2 19.1%, COc1cccc(NC(=O)Cn2c(=O)n(CCCCC(=O)NCc3ccccc3Cl)c(=O)c3ccccc32)c1 -0.0766%, CC1CCCCN1C(=O)CCS(=O)(=O)c1cc2c(cc1Cl)NC(=O)CO2 (stereo unspecified) 34.7%, COc1cccc(CNCCCSc2nnnn2C)c1OC -1.77%, CCc1ccccc1NC(=O)Cn1ccn(Cc2ccccc2)c(=O)c1=O -26.1%, COc1ccc(NC(=O)CCc2nnc3n(Cc4ccc(C)cc4)c(=O)c4ccccc4n23)cc1 -9.71%, Cc1cccc(C(=O)N2CCc3cc(CNS(=O)(=O)c4ccc(F)c(Cl)c4)ccc32)c1 -21%, CCS(=O)(=O)c1nc(S(=O)(=O)c2ccc(C)cc2)c(NC)s1 -5.07%, CC(=O)Nc1c(C)nn(-c2ccccc2)c1N1CCC(C(=O)Nc2ccccc2F)CC1 -14%, Cn1c2ccccc2c2cnn(CC(=O)NCCCN3CCN(c4ccccc4F)CC3)c(=O)c21 -6.66%, CCCCN1C[C@H](O)[C@@H](O)[C@H](O)[C@H]1CO -20.5%, O=C(Nc1ccccc1)N(Cc1cccc(Cl)c1)c1ccccn1 -10%, CC(=O)c1ccc(N2CCN(C(=O)Nc3ccc(C(C)C)cc3)CC2)cc1 29.8%, COc1ccc(CCNC(=O)c2ccc3c(c2)ncn3-c2ccc(C(C)C)cc2)cc1OC 0.839%, CC(C)c1ccc2occ(CC(=O)N(Cc3ccc(F)cc3)C3CCS(=O)(=O)C3)c2c1 (stereo unspecified) -10.4%, COc1ccc(NC(=O)c2ccco2)cc1NC(=O)c1c(OC)cccc1OC -10.5%, COc1ccccc1CNC(=O)c1cc2c(s1)-c1ccc(Cl)cc1SC2 6.45%, Cc1ccccc1CNC(=O)CSc1nnc(C)c2c(C)n(-c3ccccc3)nc12 7.55%, Cc1ccc(S(=O)(=O)n2nc(C)c(S(=O)(=O)N3CCCCCC3)c2C)cc1C -8.52%, Cc1ccn2c(Nc3ccc4c(c3)OCCO4)c(-c3ccccc3O)nc2c1 -10.7%, CCCCOc1ccc(C2C(C(=O)Nc3ccccc3OC)=C(C)Nc3nnnn32)cc1OC (stereo unspecified) -1.86%, CC(=O)N1CCCc2cc(S(=O)(=O)N3CCC(C(=O)Nc4ccc(C)cc4Cl)CC3)ccc21 -2.74%, CCOc1cccc(CC(=O)N2CCc3c([nH]c4ccc(OC)cc34)C2c2ccc(F)cc2)c1OCC (stereo unspecified) -19.7%, O=C(COc1ccc(Cl)cc1)Nc1nnc(S(=O)(=O)N2CCCCCC2)s1 5.2%, CCOC(=O)c1c(NC(=O)c2cc(-c3ccc(OC)c(OC)c3)on2)sc(C)c1C -5.13%, CCN(CC)CCCNC(=O)CCC(=O)NNc1nc2ccccc2c2nc(C)nn12 26%, COc1ccccc1N1CCN(C(CNC(=O)C(=O)NCc2cccnc2)c2cccnc2)CC1 (stereo unspecified) 4.66%, C[C@](N)(Cc1ccc(O)cc1)C(=O)O -3.23% and -2.04%, Cc1cc(NC(=O)Nc2nnc(N3CCCCCC3)s2)ccc1Br 6.04%, COc1cc2c(cc1OC)[C@@H]1CC(=O)[C@@H](CC(C)C)CN1CC2 4.04%, Cc1ccc(NC(=O)c2oc3c(c2C)-c2[nH]ncc2CC3)c(Cl)c1 3.1%, Cc1ccc(-c2nn(-c3ccccc3)c3c2cnc2ccccc23)cc1C -10.8%, Cc1ccc(CNC(=O)c2ccc(Nc3nc4ccccc4n4nnnc34)cc2)cc1 4.54%, Cc1ccc(S(=O)(=O)N(CCc2ccccc2)CC(=O)Nc2ccccc2C)cc1 -5.35%, Cn1cnc(S(=O)(=O)N2CCCC(C(=O)NCc3ccc(F)cc3)C2)c1 (stereo unspecified) -6.15%, COc1ccc(OC)c(-c2noc(N3CCN(c4ccc(Cl)cc4)CC3)n2)c1 -1.17%

activation, active:
COc1cccc(CCc2ccccc2OCC(CN(C)C)OC(=O)CCC(=O)O)c1 (stereo unspecified) 94.8%, COc1ccc(NS(=O)(=O)c2ccc3[nH]c4c(c3c2)CCCCC4)cc1 73.6%
